# Values joined by “and” are separate entries in the source; they are usually repeats but may differ in a detail not shown here. Equal values may be shown once. Among all 94,000 compounds or so, about 4,000 (4.3%) were called active. Inconclusive means that the source gave no clear call. Such entries were picked first, then a sample of the others. Calls follow the shape of the dose curve; as a rule, active = well fitted inhibition curve with a large enough effect; inconclusive = small, poorly fitted or top-dose-only effect; inactive = no such curve, though single readings can be large or run the other way. Potencies of inconclusive entries are doubtful fits and often do not repeat.
# Test: Cytotoxic Profiling in NIH 3T3 Cell Line of Diverse Libraries Using Quantitative High-Throughput Screening; also: nearly all actives have a fitted effect of over 55% in size
# Details: NIH 3T3 viability, CellTiter-Glo ATP luminescence, 48-72 h; activity change, negative = cytotoxicity: at 96.7 µM (top of the series) unless noted; series mostly up to 96.7 µM
# Outline: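 Cytotoxicity was measured by CellTiter-Glo ATP luminescence after 48 or 72 h compound exposure at 37 °C. Mouse NIH 3T3 fibroblasts were seeded at 400 cells/well and dosed by 23 nL pin transfer.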
# % is scaled to controls: 0 for no effect and ±100 for the full control effect; potency is read from the fitted curve at half-maximal effect; tags tell the direction and shape of the fitted curve.
Compound,"activity change, negative = cytotoxicity",Potency,outcome
CN1CCN(C(=O)c2cc(-c3cccnc3)nc3c2cnn3C)CC1,inactive: -11.9% [at 138 µM],,
NCc1cccc(-c2ccc(F)cc2F)c1,,"inconclusive: 89.1 µM [inhibitor, partial curve]",
N#Cc1ccccc1CN1CCC([C@@H]2CNC[C@H]2CO)CC1,inactive: -20.2%,,
Cc1cc(=O)n(CC(=O)Nc2ccc(F)cc2)c(N2CCc3ccccc3C2)n1,,active: 39.8 µM,
COc1ccc2c3c1CN(C(=O)COc1ccccc1)CC3=CC(C)(C)CO2,,"inconclusive: 50.1 µM [inhibitor, partial curve, poor fit]",
O=C1N(Cc2ccccc2F)CCOC12CCN([S+](=O)([O-])c1cccnc1)CC2,,"inconclusive: 17.8 µM [inhibitor, full curve, poor fit]",
COc1ccc(CN2CCC3(C2)C(=O)N(c2ccccc2)c2ccccc23)cc1 (configuration not stated),,"inconclusive: 50.1 µM [inhibitor, partial curve, poor fit]",
O=C(CCCOc1ccccc1)N1CCCC2(CCC(=O)N(CC3CC3)C2)C1 (configuration not stated),,"inconclusive: 35.5 µM [inhibitor, partial curve, poor fit]",
O=C(c1cccs1)N1CC[C@H](c2nnc(-c3ccc(Cl)cc3)o2)C1,,"inconclusive: 112 µM [inhibitor, partial curve, poor fit]",
Cc1nnc2ccc(N3CCN(C(=O)Nc4ccccc4)CC3)nn12,,"inconclusive: 100 µM [inhibitor, partial curve, poor fit]",
Cc1cc(C(=O)N2c3ccccc3CC2c2nnc(C(C)C)o2)nn1C (configuration not stated),,"inconclusive: 70.8 µM [inhibitor, single point]",
CC(C)(C)n1nnnc1C1CC2(CCOCC2)C(=O)N1Cc1ccc(F)cc1 (configuration not stated),inactive: -0.724%,,
Cc1cccc(C(=O)N2C(C(=O)NCC(C)C)COC23CCN(C(=O)c2ccc(F)cc2)CC3)c1 (configuration not stated),,"inconclusive: 70.8 µM [inhibitor, single point]",
COc1ccc(NC(=O)c2ccc3c(c2)N(C(=O)c2ccc(OC)cc2)CC3)cc1,,"inconclusive: 22.4 µM [inhibitor, full curve, poor fit]",
COc1ccc(-c2noc([C@@H]3Cc4nc[nH]c4CN3C(=O)Nc3ccc(C)cc3)n2)cc1,,"inconclusive: 39.8 µM [inhibitor, partial curve, poor fit]",
O=c1n(-c2ccncc2)nc2n1CCN(Cc1ccccc1)C2,,"inconclusive: 8.91 µM [inhibitor, partial curve, poor fit]",
COc1cc(CNC(=O)C2Cn3cccc3C(=O)N2CC(C)C)cc(OC)c1 (configuration not stated),inactive: -6.9%,,
CC(C)c1ccc(CN2CC(Oc3ccccc3C(=O)NC3CC3)C2)cc1,,"inconclusive: 44.7 µM [inhibitor, partial curve, poor fit]",
COc1cccc(-c2cn3cc(C(=O)NCC4CC4)nc3s2)c1,,"inconclusive: 56.2 µM [inhibitor, partial curve, poor fit]",
COC(=O)[C@@H]1Cc2c([nH]c3ccccc23)[C@H]2C[C@@H](NCCNC(C)=O)C[C@@H](c3ccc(C)cc3)N21,,active: 28.2 µM,
COc1ccc(OC)c(CNC(=O)C2CCc3sc(C(=O)N4CCCC4)cc3C2)c1 (configuration not stated),,"inconclusive: 44.7 µM [inhibitor, partial curve, poor fit]",

Compound,"activity change, negative = cytotoxicity",Potency,outcome
Cc1noc(C)c1[S+](=O)([O-])N1CCn2c(nn(-c3ccc(Cl)cc3)c2=O)C1,,"inconclusive: 12.6 µM [inhibitor, full curve]",
O=C(Nc1cccnc1)[C@@H]1CCCN1c1ccnc2ccnn12,inactive: -19.4% [at 138 µM],,
NC(=O)C1(N2CCCCC2)CCN(c2nccc(-c3ccccn3)n2)CC1,inactive: -26%,,
CC(C)NC(=O)c1csc(-c2cccc(OC(C)C)c2)n1,,"inconclusive: 44.7 µM [inhibitor, partial curve, poor fit]",
CS(=O)(=O)N1CCOC[C@H](Oc2ccc(C(F)(F)F)cc2)C1,inactive: -16.6% [at 138 µM],,
O=C(Cc1ccc(F)cc1)N1CCCN(c2ccc3nnc(-c4ccccc4)n3n2)CC1,inactive: -24.6%,,
Cc1cn2nc(C(=O)N3CCC(NC(=O)c4nccc5ccccc45)CC3)cc2c(=O)[nH]1,,"inconclusive: 50.1 µM [inhibitor, partial curve, poor fit]",
Cc1nnc(-c2cc(-c3cnn(C)c3)ccn2)n1C1CCCCC1,,"inconclusive: 89.1 µM [inhibitor, partial curve, poor fit]",
Cc1ccc(NC(=O)N2CCC(CCNC(=O)c3cnccn3)CC2)cc1,inactive: -9.25%,,
Cc1ccc(-c2cc3c(=O)n(CCNC(=O)c4ccc(Cl)cc4)ccn3n2)c(C)c1,,"inconclusive: 70.8 µM [inhibitor, single point]",
COc1ccc(NC(=O)CN2C(=O)NC3(CCC(C(C)(C)C)CC3)C2=O)cc1OC (configuration not stated),,"inconclusive: 56.2 µM [inhibitor, partial curve, poor fit]",
CCCn1cnc2c1CN(S(=O)(=O)c1cccc3cccnc13)[C@H](C(=O)OC)C2,,"inconclusive: 126 µM [inhibitor, partial curve, poor fit]",
CC(C)N1C[C@H](O)C[C@H]1c1nnc2n1CCN(C(=O)COc1ccc(F)cc1)C2,,"inconclusive: 56.2 µM [inhibitor, partial curve, poor fit]",
O=C(C1CCCC1)N1Cc2ccccc2CC2(CCN(CC3CCNC3)C2)C1 (configuration not stated),,"inconclusive: 50.1 µM [inhibitor, partial curve, poor fit]",
COc1ccc(OC)c(NC(=O)Cc2cccn2-c2ccc(Cl)cc2)c1,,"inconclusive: 50.1 µM [inhibitor, partial curve, poor fit]",
O=C(C1CCCC1)N1CCC(c2noc(-c3ccncc3)n2)C1 (configuration not stated),inactive: -11.5%,,
CN1c2cc(C(=O)Nc3ccc4c(c3)CCC4)ccc2C(=O)N2CCCCC21 (configuration not stated),,"inconclusive: 50.1 µM [inhibitor, partial curve, poor fit]",
COCCCn1c(=O)c(C(=O)N2CCN([S+](=O)([O-])c3cccs3)CC2)nc2cccnc21,inactive: -20.8%,,
COc1ccc(-n2c(=O)c3c(n2Cc2ccccc2)CN(Cc2c(C)noc2C)CC3)cc1,,"inconclusive: 70.8 µM [inhibitor, single point]",
Cc1noc(C)c1Cn1cc2c3c(cccc31)[C@H](CC(C)C)N[C@H](C(=O)O)C2,,"inconclusive: 126 µM [inhibitor, single point]",
O=C1NCCOCCCN(S(=O)(=O)c2ccc3c(c2)OCCO3)[C@H]2CCC[C@@H]12,inactive: -19.4%,,

Compound,"activity change, negative = cytotoxicity",Potency,outcome
COc1cccc(CN2CCCC3(Cc4ccccc4CNC3=O)C2)n1 (configuration not stated),,"inconclusive: 89.1 µM [inhibitor, single point]",
COCCCn1c(=O)c(C(=O)N2CCN(C(=O)C3CC3)CC2)nc2cccnc21,inactive: -6.76%,,
COCCN1C(=O)[C@@H]2C[C@@H](CN2Cc2ccc3c(c2)OCO3)Oc2ccccc21,,"inconclusive: 79.4 µM [inhibitor, partial curve, poor fit]",
O[C@@H]1C[C@@H](c2nc(-c3ccc4c(c3)OCO4)no2)N(Cc2ccc(-c3ccccn3)cc2)C1,,"inconclusive: 79.4 µM [inhibitor, partial curve]",
CC(C)c1cc(CN(C)C(=O)CN2C(=O)COc3cccnc32)on1,inactive: -1.53%,,
O=[S+]1([O-])c2cccnc2OC(COc2ccccc2)CN1Cc1ccc2c(c1)OCO2 (configuration not stated),,"inconclusive: 28.2 µM [inhibitor, partial curve, poor fit]",
CC1=C[C@@H](CN2CCN(c3ccccn3)CC2)[C@H](C(C)C)C[C@H]1Cc1nnc(-c2cncn2C)o1,,"inconclusive: 39.8 µM [inhibitor, partial curve, poor fit]",
CCOC(=O)C1CCN(C(=O)c2cc(-c3ccc(F)cc3)nc3c2cnn3C)CC1,inactive: -27.1%,,
Cc1cc(-c2cnc3n[nH]c(-c4ccccc4)c3n2)ccn1,,"inconclusive: 12.6 µM [inhibitor, full curve, poor fit]",
CCOC(=O)c1ccc(NC(=O)N2CCc3c(nc4cc[nH]n4c3=O)C2)cc1,,,inactive
O=C(C1CCCC1)N1CCCC(C(=O)N2CCC(c3nc4ncccc4[nH]3)C2)C1 (configuration not stated),inactive: -26.4%,,
Cc1ccc(-c2nnc3ccc(NCCN(C)C)nn23)nc1,,"inconclusive: 112 µM [inhibitor, single point]",
Cc1ccccc1NC(=O)Nc1ccnn1C1CCN(C(=O)CCN)CC1,inactive: -3.4%,,
COc1cccc(-c2cc(C3CCN(C(=O)Nc4ccc(F)cc4)CC3)[nH]n2)c1,,"inconclusive: 44.7 µM [inhibitor, partial curve, poor fit]",
Cc1ccc(C(=O)N2CCN(c3nccc(Nc4ccccc4F)n3)CC2)cc1,,"inconclusive: 44.7 µM [inhibitor, partial curve, poor fit]",
CCCCN(CC#Cc1ccccc1)C(=O)c1cc(=O)n(C)c(=O)n1C,,"inconclusive: 100 µM [inhibitor, single point]",
CCOc1ccccc1C1NC(=O)N(CC(=O)Nc2cccc(SC)c2)C2=C1C(=O)OC2 (configuration not stated),,"inconclusive: 44.7 µM [inhibitor, partial curve, poor fit]",
Cc1cccc2c1nc1n2[C@@H](CNCc2ccc(S(C)(=O)=O)cc2)COC1,,"inconclusive: 35.5 µM [inhibitor, partial curve, poor fit]",
O=C(c1cc(C2CC2)nc2c1c(C1CCCN1)nn2-c1ccccc1)N1CCOCC1 (configuration not stated),,"inconclusive: 50.1 µM [inhibitor, partial curve, poor fit]",
CC1(C)[C@H]2CC[C@@H](CNC(=O)c3ccc(C(F)(F)F)cc3)[C@@H]1C2,,"inconclusive: 28.2 µM [inhibitor, full curve] and inconclusive: 89.1 µM [inhibitor, partial curve, poor fit]",
